± gives the uncertainty stated by the source. This continues a long series; more values of the same kind are listed elsewhere.
Experiment: xn = mol fraction of the nth substance listed
Conditions: 101 kPa

CC[N+](C)(CC)CCOC.F[B-](F)(F)F + O=C1CCCO1
Conditions | electrical conductivity, x1 = 0.7999 [S/m] | electrical conductivity, x1 = 0.9008 [S/m] | electrical conductivity, x1 = 1 [S/m] | viscosity, x1 = 0.7999 [mPa·s] | viscosity, x1 = 0.9008 [mPa·s] | viscosity, x1 = 1 [mPa·s]
288.15 K | – | 0.132 ± 0.01 | 0.094 ± 0.01 | – | 248 ± 13 | 288 ± 17
293.15 K | – | 0.184 ± 0.01 | 0.136 ± 0.01 | – | 189.5 ± 8.6 | 228 ± 12
298.15 K | 0.302 ± 0.01 | 0.251 ± 0.01 | 0.189 ± 0.01 | 116.5 ± 3.8 | 144.1 ± 5.5 | 178.6 ± 7.9
303.15 K | 0.395 ± 0.01 | 0.336 ± 0.01 | 0.259 ± 0.01 | 86.3 ± 2.3 | 109.8 ± 3.5 | 140.4 ± 5.3
308.15 K | 0.504 ± 0.01 | 0.421 ± 0.01 | 0.347 ± 0.01 | 63.7 ± 1.4 | 84.1 ± 2.2 | 111.4 ± 3.5
313.15 K | 0.628 ± 0.01 | 0.537 ± 0.01 | 0.449 ± 0.01 | 48 ± 1 | 65.2 ± 1.4 | 89.3 ± 2.4
318.15 K | 0.772 ± 0.01 | 0.67 ± 0.01 | 0.568 ± 0.01 | 36.14 ± 0.77 | 49.8 ± 1.1 | 70.5 ± 1.6
323.15 K | 0.919 ± 0.01 | 0.811 ± 0.01 | 0.711 ± 0.01 | 27.6 ± 0.59 | 39.07 ± 0.83 | 57.5 ± 1.2
328.15 K | 1.08 ± 0.011 | 0.964 ± 0.01 | 0.868 ± 0.01 | 20.88 ± 0.44 | 29.96 ± 0.64 | 46.04 ± 0.98
333.15 K | 1.26 ± 0.013 | 1.16 ± 0.012 | 1.05 ± 0.011 | 16.65 ± 0.35 | 23.35 ± 0.5 | 37.06 ± 0.79
338.15 K | 1.46 ± 0.015 | 1.36 ± 0.014 | 1.25 ± 0.013 | 12.19 ± 0.26 | 17.8 ± 0.38 | 30.41 ± 0.65
343.15 K | 1.69 ± 0.017 | 1.58 ± 0.016 | 1.48 ± 0.015 | 8.99 ± 0.19 | 13.6 ± 0.29 | 25.21 ± 0.54
348.15 K | 1.93 ± 0.019 | 1.835 ± 0.018 | 1.732 ± 0.017 | 7.96 ± 0.17 | 10.95 ± 0.23 | 20.95 ± 0.45
353.15 K | 2.19 ± 0.022 | 2.09 ± 0.021 | 1.99 ± 0.02 | 6.07 ± 0.13 | 8.16 ± 0.17 | 17.24 ± 0.37

Reference: the CheMixHub ionic liquid set
